Reference: PMC6919601, “Identification of Plasmodium dipeptidyl aminopeptidase allosteric inhibitors by high throughput screening” (PLoS ONE, 2019)
In all, about 110,000 compounds went through this assay and about 230 (0.21%) showed an effect of 50% or more. The list shows a part of the results.

These compounds were tested against DPAP1 (Plasmodium falciparum, UniProt Q8IIJ9) (assay: primary screen, percent inhibition; read by cleavage of a fluorogenic dipeptide substrate; higher = more effect of the substance).
Sequence of DPAP1 (Q8IIJ9 whole entry, looked up): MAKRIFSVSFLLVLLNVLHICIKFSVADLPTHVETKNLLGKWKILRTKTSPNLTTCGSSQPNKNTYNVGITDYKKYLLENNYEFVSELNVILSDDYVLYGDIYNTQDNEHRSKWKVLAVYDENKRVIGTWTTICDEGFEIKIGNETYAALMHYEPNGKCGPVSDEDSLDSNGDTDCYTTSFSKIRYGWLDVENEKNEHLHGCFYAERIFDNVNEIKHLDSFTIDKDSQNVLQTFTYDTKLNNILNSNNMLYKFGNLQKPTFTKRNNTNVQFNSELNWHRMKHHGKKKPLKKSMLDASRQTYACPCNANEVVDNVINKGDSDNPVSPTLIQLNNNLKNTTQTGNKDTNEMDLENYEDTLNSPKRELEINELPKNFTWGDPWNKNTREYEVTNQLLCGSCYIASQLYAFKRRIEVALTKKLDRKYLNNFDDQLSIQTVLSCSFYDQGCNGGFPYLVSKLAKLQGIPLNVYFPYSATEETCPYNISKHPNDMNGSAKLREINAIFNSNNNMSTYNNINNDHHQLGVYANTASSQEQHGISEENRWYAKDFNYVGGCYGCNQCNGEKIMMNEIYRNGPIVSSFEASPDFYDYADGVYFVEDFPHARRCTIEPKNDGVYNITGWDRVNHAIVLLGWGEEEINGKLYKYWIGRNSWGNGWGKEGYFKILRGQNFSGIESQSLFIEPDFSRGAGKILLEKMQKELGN
Set-up: species or system P. falciparum D10 trophozoite lysates; single well
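Also: 30 min substrate incubation versus DMSO and 10 µM JCP410 controls.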

SMILES	% Inhibition @ 10 uM [%]
C/C(=C1\C(=O)N(c2nc3ccccc3s2)N=C1C(F)(F)F)N1CCN(C)CC1	2.69
CSc1cccc(NC(=O)C2CCN(S(=O)(=O)c3ccccc3)CC2)c1	4.28
C=CCOc1ccc(C2CC(=O)Oc3c2c(=O)oc2ccccc32)cc1 (stereo not shown)	-4.04
CS(=O)(=O)N1CCCC(C(=O)N2CCc3ccccc3C2)C1 (stereo not shown)	3.79
COc1ccccc1N1CCN(C(=O)C(C)Oc2cccc(Cl)c2)CC1 (stereo not shown)	3.32
O=C(Nc1ccc(Cl)cc1C(=O)N1CCCCCC1)c1ccco1	-3.1
CC1=C(C(=O)OCc2ccccc2)C(c2ccc(C)cc2)C2=C(O)CCCC2=N1 (stereo not shown)	10.2
O=C(CN1C(=O)c2cccc3cccc1c23)Nc1ccc(Oc2ccccc2)cc1	1.88
Cc1cc(C)c(C#N)c(SCCC(=O)NCCc2ccccc2)n1	-0.994
COc1ccc(C(=O)N2CCCC(C(=O)N3CCCCCC3)C2)cc1 (stereo not shown)	0.565
CC1CCC(N2CCCC(C(N)=O)C2)C1 (stereo not shown)	-3.5
CCOC(=O)c1c(NC(=O)c2nnc(O)c3ccccc23)sc(C)c1C	2.57
Cc1cc(-n2c(SCC(=O)NC3CCCCC3)nc3nnc(C)c-3c2N)ccc1Cl	-3.78
COc1cccc(/C=c2\sc3nc(-c4cccc(C)c4)nn3c2=O)c1	-1.18
COc1cc(C(=O)NC(c2ccccc2)c2c(O)ccc3ccccc23)cc(OC)c1OC (stereo not shown)	10.2
CCCCC(=O)Nc1ccc(C(C)=O)cc1	-1.46
O=C(C1CCCN(c2ncnc3c2nc2n3CCCCC2)C1)N1CCN(Cc2ccccc2)CC1 (stereo not shown)	-2.96
Cc1cc(Br)ccc1OCCCN1CCC(C)CC1	3.25
COc1ccc(C2=NOC(C(=O)NC3CCCC3)C2)cc1 (stereo not shown)	3.2
COc1cccc(NC(=O)c2cnn3c(C(F)F)cc(-c4ccc(C)cc4)nc23)c1	2.42
COC(=O)c1cc2nc(-c3ccccc3)cc(C)n2n1	4.57
CCCc1[nH]nc2c1C(c1cccc(O)c1)C(C#N)=C(N)O2 (stereo not shown)	5.89
CCOC(=O)c1c(N)sc2c1CCN(CCc1ccccc1)C2	3.54
NS(=O)(=O)c1ccc(CNC(=O)c2cc(-c3cccs3)nc3ccccc23)cc1	7.04
Fc1cccc(F)c1CN1CCC(N2CCCCC2)CC1	-8.55
O=C1CC(c2ccco2)CC(=O)C1=CNCCN1CCN(C2OC(=O)c3ccccc32)CC1 (stereo not shown)	2.24
CCc1nc(O)c2c3c(sc2n1)CCCCC3	5.55
Cc1ccc(C)c(NC(=O)c2cccs2)c1	-8.2
